Test results reported in PubChem BioAssay AID1768 (National Center for Advancing Translational Sciences (NCATS), 2009).
The whole screen tested about 270,000 compounds, of which about 620 (0.23%) were called active. The inconclusive results got no clear call from the source; some entries with a clear call stand among them for comparison. Calls come from the whole dose curve; as a rule, active = well fitted inhibition curve with a large enough effect in the polarisation, with a control signal flat (not every such curve was filed as active); inconclusive = small, poorly fitted or top-dose-only effect, or effect the other way, or a change in a side signal; inactive = no such curve, though single readings can be large or run the other way; the % refers to the polarisation. A potency beside an inconclusive call is a rough fit, not a confirmed value. A note “side channel” means that the fit belongs to a control or component signal, not to the main read-out.

Target: Menin (Homo sapiens) (UniProt O00255)
Assay: qHTS Assay for Inhibitors Targeting the Menin-MLL Interaction in MLL Related Leukemias: Competition With Texas Red Labeled MLL-derived Mutant Peptide; for FP activity change, negative = inhibition: % of control where 0% means no effect
Conditions: fluorescence polarization; FP activity change, negative = inhibition: at 61.6 µM (top of the series)
Potency is the fitted concentration of half-maximal effect; tags give direction and shape of the fitted curve or compound fluorescence and quenching.

Chain of UniProt O00255 (O00255 whole entry, looked up): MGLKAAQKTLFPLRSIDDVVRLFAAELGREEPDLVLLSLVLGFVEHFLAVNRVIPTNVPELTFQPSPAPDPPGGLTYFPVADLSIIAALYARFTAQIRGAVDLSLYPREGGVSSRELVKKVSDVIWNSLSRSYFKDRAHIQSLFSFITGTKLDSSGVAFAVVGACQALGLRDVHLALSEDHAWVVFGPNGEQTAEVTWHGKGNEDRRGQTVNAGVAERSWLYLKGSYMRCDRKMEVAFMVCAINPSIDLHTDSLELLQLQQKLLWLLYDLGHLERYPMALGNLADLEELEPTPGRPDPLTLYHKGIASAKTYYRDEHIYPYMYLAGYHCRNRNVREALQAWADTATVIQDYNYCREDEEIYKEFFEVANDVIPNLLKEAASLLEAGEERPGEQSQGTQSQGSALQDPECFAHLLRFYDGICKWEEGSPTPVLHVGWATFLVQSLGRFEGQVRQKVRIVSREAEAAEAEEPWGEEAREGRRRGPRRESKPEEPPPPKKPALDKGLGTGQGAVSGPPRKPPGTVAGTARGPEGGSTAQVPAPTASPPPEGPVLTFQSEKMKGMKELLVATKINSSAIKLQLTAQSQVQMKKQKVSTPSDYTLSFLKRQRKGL

Row | SMILES | Potency | FP activity change, negative = inhibition
1 | COc1ccc(NS(=O)(=O)c2ccc3oc(Nc4ccc5c(c4)OCCO5)nc3c2)cc1 | inconclusive: 14.1 µM [quencher, side channel, partial curve] | 
2 | CC(Nc1ccc(Br)cn1)c1cc(Cl)ccc1O (centres undefined) | inconclusive: 39.8 µM [quencher, side channel, single point] | 
3 | CCOC(=O)c1c(Nc2ccc(Cl)cc2)sc(/C=C2\C=Nc3ccccc32)c1O | inconclusive: 20 µM [quencher, side channel, single point] | 
4 | O=C(O)c1ccc(Nc2nc3ccccc3nc2NS(=O)(=O)c2ccc(F)cc2)cc1 | inconclusive: 12.6 µM [quencher, side channel, partial curve] | 
5 | CCOCCCNC(=O)CN1C(=O)NC(Cc2c[nH]c3ccccc23)C1=O (centres undefined) |  | inactive: 6.07%
6 | Cn1cc(C(=O)NS(=O)(=O)Nc2ccc(Br)cn2)c2ccccc21 | inconclusive: 17.8 µM [quencher, side channel, single point] | 
7 | Cc1cc(NC(=O)CSc2ccc(-c3ccc4c(c3)OCO4)nn2)no1 | inconclusive: 35.5 µM [fluorescent, side channel, single point] | 
8 | Cc1cc2ccccc2n1CCNC(=O)C(C)C | inconclusive: 39.8 µM [inhibitor, single point] | 
9 | CC(C(=O)O)N1C(=O)CSC1=S (centres undefined) | inconclusive: 25.1 µM [fluorescent, side channel, partial curve] | 
10 | CSc1ncccc1C(=O)Nc1nc2ccc(F)cc2s1 | inconclusive: 12.6 µM [quencher, side channel, partial curve] | 
11 | CC1=NN(c2ccc(Br)cc2)C(=O)/C1=C/c1cccs1 | inconclusive: 25.1 µM [quencher, side channel, partial curve] | 
12 | Cc1nc(-c2c(-c3ccc(O)cc3O)noc2C(F)(F)F)cs1 | inconclusive: 31.6 µM [quencher, side channel, single point] | 
13 | C=CCOC[C@@H]1CN2[C@H](c3ccc(Br)cc3)[C@@H](C)CC[C@H]2C(=O)O1 |  | inactive: -0.878%
14 | Cc1ccc(NC(=O)c2nnn(-c3ccc4c(c3)OCCO4)c2N)cc1 | inconclusive: 31.6 µM [quencher, side channel, single point] | 
15 | Cc1cc2[nH]c(=O)c(=O)[nH]c2cc1S(=O)(=O)N1CCN(c2cccc(C)c2C)CC1 |  | inactive: 27%
16 | CCCCNC(=S)NCc1ccc2[nH]c(C)cc2c1 |  | inactive: 5.63%
17 | CCOC(=O)c1c2c3c(c(Cl)ccc3[nH]c1=O)C(=O)c1ccccc1-2 | inconclusive: 25.1 µM [quencher, side channel, single point] | 
18 | CC(=O)Nc1ccc(NC(=O)c2ccc(CSc3ccccc3)o2)cc1 | inconclusive: 39.8 µM [fluorescent, side channel, single point] | 
19 | O=C1CCN(CCc2ccccc2)CCN1[C@H](CO)c1ccccc1 |  | inactive: -7.47%
20 | Cc1ccc(NC(=O)CCC(=O)c2cccs2)cc1F | inconclusive: 10 µM [inhibitor, partial curve, poor fit] | 

Row | SMILES | Potency | FP activity change, negative = inhibition
21 | Cc1cc(O)cc(=O)o1 | inconclusive: 17.8 µM [inhibitor, single point] | 
22 | COCCN1CC(=O)N2C(c3cccc(C)c3)c3[nH]c4ccccc4c3C[C@H]2C1=O (some centres undefined) | inconclusive: 39.8 µM [inhibitor, single point] | 
23 | COc1cc(CNc2ccc3[nH]c(=O)[nH]c3c2)ccc1OCc1ccc(F)cc1 | inconclusive: 14.1 µM [quencher, side channel, partial curve] | 
24 | Clc1cccc(-c2nc(NCc3cccnc3)c3ccccc3n2)c1 | inconclusive: 12.6 µM [quencher, side channel, partial curve] | 
25 | O=C(NC1CCCCC1)C(c1ccc(O)cc1)N(CC1CCCO1)C(=O)C1COc2ccccc2O1 (centres undefined) | inconclusive: 3.16 µM [fluorescent, side channel, full curve] | 
26 | CC(=O)C[C@H](c1ccccc1)c1c(O)c2ccccc2oc1=O |  | inactive: -6.45%
27 | Cc1cccc(C)c1NC(=O)COc1cccc(/C=N/NC(=O)C(=O)NCc2ccccc2)c1 | inconclusive: 10 µM [inhibitor, partial curve] | 
28 | O=C(CC1C(=O)N(c2ccccc2)C(=S)N1c1ccccc1)c1ccc(Br)cc1 (centres undefined) | inconclusive: 31.6 µM [inhibitor, single point] | 
29 | O=c1c2c(-c3ccc([N+](=O)[O-])cc3)ccnc2[nH]n1-c1ccccc1 | inconclusive: 15.8 µM [quencher, side channel, partial curve] | 
30 | O=C1c2cccc3c([N+](=O)[O-])ccc(c23)C(=O)N1c1ccc(Cl)cn1 | inconclusive: 35.5 µM [inhibitor, partial curve] | 
31 | COc1ccc(O)c(/C=N/NS(=O)(=O)c2ccc(C)cc2)c1 | inconclusive: 20 µM [quencher, side channel, single point] | 
32 | CCN1CCN(c2sc(S(C)(=O)=O)nc2S(=O)(=O)c2ccc(Cl)cc2)CC1 | inconclusive: 17.8 µM [inhibitor, partial curve] | 
33 | COC(=O)c1ccccc1NC(=O)c1cn(-c2ccc(C)c(C)c2)c(=O)c2ccccc12 |  | inactive: -4.86%
34 | CCCCCc1nc(-c2nonc2N)no1 |  | inactive: 11.3%
35 | Cc1ccc(-n2c(SCC(=O)N(C)C)nnc2-c2ccco2)cc1 | inconclusive: 31.6 µM [inhibitor, single point] | 
36 | O=c1oc2ccccc2cc1-c1nc(-c2cccs2)cs1 | inconclusive: 14.1 µM [quencher, side channel, partial curve] | 
37 | COc1cc(CNCCN2CCOCC2)ccc1OCc1c(Cl)cccc1Cl | inconclusive: 31.6 µM [fluorescent, side channel, single point] | 
38 | Cn1cnnc1SCc1ccc(-c2ccc(Br)cc2)o1 | inconclusive: 22.4 µM [quencher, side channel, partial curve] | 
39 | NNC(=O)c1ccc([N+](=O)[O-])c(CS(=O)(=O)c2ccc(Cl)cc2)c1 | inconclusive: 15.8 µM [quencher, side channel, partial curve] | 
